This note sets out measurements from the supplement of paper PMC9446081.

Out of some 39,000 compounds screened, about 220 (0.56%) showed activity. Some of the results follow.
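Also: static incubation at 37 °C against the wild-type strain, values averaged over two biological replicates.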

The subject of the experiment is Escherichia coli K-12 BW25113. Put plainly: relative growth (OD600 normalised to plate interquartile mean) (fraction); higher = less growth inhibition, active = 0.2 or less. The following applies: 50 µM; LB; incubation time: overnight (16-24 h).
On to `O=C(C[C@@H]1CC[C@H]2[C@@H](COC[C@H](O)CN2S(=O)(=O)c2ccc(Cl)cc2)O1)NCC1CCCCC1`, for which the relative growth was inactive: 0.88. The figure for `C[C@H](CO)N1C[C@H](C)[C@@H](CN(C)S(=O)(=O)c2cn(C)cn2)Oc2ccc(NS(=O)(=O)c3cccs3)cc2CC1=O` is inactive: 1.01; for `COc1ccc(NC(=O)N(C)C[C@H]2Oc3ccc(NC(=O)CCCCCC(=O)Nc4ccccc4N)cc3C(=O)N([C@H](C)CO)C[C@H]2C)cc1` it is inactive: 0.968. As for `C[C@H](CO)N1C[C@H](C)[C@H](CN(C)Cc2ccccc2)Oc2ccc(NS(=O)(=O)c3cn(C)cn3)cc2C1=O`, the figure is inactive: 0.962; as for `C[C@H]1CN([C@@H](C)CO)C(=O)c2ccccc2-c2ccccc2CO[C@@H]1CN(C)Cc1cccc(C(F)(F)F)c1`, inactive: 1.06; as for `CC(C)NC(=O)N(C)C[C@H]1OCc2cnnn2CCCC(=O)N([C@@H](C)CO)C[C@@H]1C`, inactive: 1. Consider `C[C@@H]1CN([C@H](C)CO)C(=O)c2cc(NC(=O)c3ccccc3)ccc2O[C@@H](C)CCCCO[C@@H]1CN(C)Cc1ccncc1`, for which the relative growth is inactive: 1.06. Regarding `C[C@@H]1CN([C@@H](C)CO)C(=O)c2cc(NC(=O)Nc3ccc(F)cc3)ccc2O[C@@H](C)CCCCO[C@@H]1CN(C)Cc1ccccc1`, the relative growth is inactive: 1.07.

On to `C[C@@H]1CCCCO[C@H](CN(C)C(=O)Nc2ccc(F)cc2)[C@@H](C)CN([C@@H](C)CO)C(=O)c2cc(NC(=O)Cc3ccccc3)ccc2O1`, for which the relative growth was inactive: 0.99.

Turning to `COc1ccc(S(=O)(=O)N(C)C[C@H]2Oc3c(NC(=O)Cn4cnnn4)cccc3C(=O)N([C@H](C)CO)C[C@@H]2C)cc1`, the relative growth was inactive: 1.02. On to `C=CC[C@H](CC(=O)N(CCO)Cc1ccccc1)C(=O)N[C@@H](COC(=O)[C@@H](CC=C)Cc1ccc(F)cc1)Cc1c[nH]c2ccccc12`, for which the relative growth was inactive: 1.01.

In the case of `CC(C)C#Cc1ccc2c(c1)O[C@@H](CN(C)C(=O)Cc1ccccn1)[C@H](C)CN([C@H](C)CO)S2(=O)=O`, the relative growth is inactive: 0.98. As for `Cc1noc(C)c1NC(=O)Nc1ccc2c(c1)C(=O)N([C@@H](C)CO)C[C@@H](C)[C@H](CN(C)C(=O)NC(C)C)O2`, the figure is inactive: 0.979. `CC(C)NC(=O)Nc1ccc2c(c1)C(=O)N([C@@H](C)CO)C[C@H](C)[C@H](CN(C)C(=O)NC1CCCCC1)O2`: the relative growth is inactive: 0.981.

In the case of `O=C(C1=C[C@H](c2ccc(C(F)(F)F)cc2)C[C@H](OCc2ccc(CO)cc2)O1)N1CCN(Cc2ccccc2)CC1`, the relative growth was inactive: 1. As to `C[C@H]1CCCCO[C@H](CN(C)CC2CCCCC2)[C@@H](C)CN([C@@H](C)CO)C(=O)c2cc(NC(=O)Nc3cccc4ccccc34)ccc2O1`, the relative growth was inactive: 0.984.

Turning to `C[C@@H]1CN([C@H](C)CO)C(=O)c2cc(NC(=O)Nc3cccc4ccccc34)ccc2O[C@@H]1CN(C)Cc1ccncc1`, the relative growth is inactive: 0.986. The figure for `CCOC(=O)c1c[nH]cnc1=O` is inactive: 0.973; for `C[C@H](CO)N1C[C@H](C)[C@H](CN(C)C(=O)Nc2ccccc2C(F)(F)F)OCc2cn(nn2)CCCC1=O` it is inactive: 0.989; for `C[C@@H]1CN([C@H](C)CO)C(=O)c2cc(NC(=O)Nc3ccc4c(c3)OCO4)ccc2O[C@@H](C)CCCCO[C@H]1CN(C)C(=O)Cc1ccccc1` it is inactive: 1.02. The figure for `COc1ccc2c(c1)[n+]([O-])c1c([n+]2[O-])CCC1` is inactive: 1. The figure for `COCC(=O)Nc1ccc2c(c1)[C@H]1C[C@H](CC(=O)N3CCOCC3)O[C@@H](CO)[C@H]1O2` is inactive: 0.985. For `C[C@H]1CN([C@@H](C)CO)C(=O)Cc2cc(NC(=O)Nc3ccc(F)cc3)ccc2O[C@@H]1CN(C)CC1CCCCC1`, the relative growth was inactive: 0.984. For the compound `COCC#Cc1ccc2c(c1)O[C@H](CN(C)C(=O)COC)[C@H](C)CN([C@H](C)CO)S2(=O)=O`, the relative growth is inactive: 1.01.

Consider `C[C@@H]1CCCCO[C@H](CN(C)C(=O)Nc2ccc(F)cc2)[C@H](C)CN([C@H](C)CO)C(=O)c2cc(NC(=O)C3CCCCC3)ccc2O1`, for which the relative growth is inactive: 1.01. Consider `C[C@@H]1CN([C@H](C)CO)C(=O)c2cc(NC(=O)NC3CCCCC3)ccc2O[C@@H](C)CCCCO[C@@H]1CN(C)S(=O)(=O)c1cccs1`, for which the relative growth was inactive: 1.02. On to `Cc1cc(C)c(C(=O)O)c(=O)[nH]1`, for which the relative growth is inactive: 0.967.

Take `C[C@@H]1CN([C@H](C)CO)C(=O)c2cc(C#CC3CCCC3)cnc2O[C@@H]1CN(C)S(=O)(=O)c1cccc(F)c1`: the relative growth was inactive: 1.01. The figure for `O=C(O)CNC(=O)CN1C(=O)c2ccccc2C1=O` is inactive: 0.978; for `C[C@H](CO)N1C[C@H](C)[C@H](CN(C)Cc2ccncc2)Oc2ccc(NC(=O)CCN3CCOCC3)cc2C1=O` it is inactive: 0.999. The figure for `Cn1c(=O)[nH]c(=O)c2c1nc(N1CCN(CCO)CC1)n2CCC#N` is inactive: 0.994; for `C[C@@H]1CN([C@@H](C)CO)C(=O)c2cc(C#CCN(C)C)cnc2O[C@@H]1CN(C)Cc1ccc2c(c1)OCO2` it is inactive: 1.02; for `C[C@@H]1CCCCO[C@H](CN(C)S(=O)(=O)c2ccc(F)cc2)[C@H](C)CN([C@@H](C)CO)C(=O)c2cc(NC(=O)Nc3ccc(F)cc3)ccc2O1` it is inactive: 1.03.

Consider `CS(=O)(=O)Nc1ccc2c(c1)[C@@H]1C[C@H](CC(=O)NCc3ccc(-c4ccccc4)cc3)O[C@@H](CO)[C@@H]1O2`, for which the relative growth was inactive: 0.976. The figure for `C[C@@H]1CN([C@H](C)CO)C(=O)Cc2cc(NC(=O)Cn3cnnn3)ccc2O[C@H]1CN(C)CC1CC1` is inactive: 1.02; for `C[C@H](CO)N1C[C@H](C)[C@H](CN(C)C(=O)Nc2ccc(F)cc2)Oc2ccc(NC(=O)CCCCCC(=O)Nc3ccccc3N)cc2C1=O` it is inactive: 0.962; for `C[C@H](CO)N1C[C@H](C)[C@@H](CN(C)C(=O)Nc2ccc3c(c2)OCO3)OCCCC[C@H](C)Oc2ccc(NC(=O)c3ccccc3)cc2C1=O` it is inactive: 1.03. Take `C[C@H](CO)N1C[C@H](C)[C@H](CN(C)S(C)(=O)=O)Oc2ccc(NC(=O)Cc3ccccc3)cc2C1=O`: the relative growth was inactive: 1.02. The figure for `O=C(O)C1CCOCC1` is inactive: 0.957.
